For four substances, binding results are on record in article PMC8954037.

Chains of the proteins cited; added tags and fusions are not shown. Lines headed by an entry give the natural chain unless they say otherwise; changes in a name come on top. Residues count along the entry.
UniProt P08113, residues 22-802: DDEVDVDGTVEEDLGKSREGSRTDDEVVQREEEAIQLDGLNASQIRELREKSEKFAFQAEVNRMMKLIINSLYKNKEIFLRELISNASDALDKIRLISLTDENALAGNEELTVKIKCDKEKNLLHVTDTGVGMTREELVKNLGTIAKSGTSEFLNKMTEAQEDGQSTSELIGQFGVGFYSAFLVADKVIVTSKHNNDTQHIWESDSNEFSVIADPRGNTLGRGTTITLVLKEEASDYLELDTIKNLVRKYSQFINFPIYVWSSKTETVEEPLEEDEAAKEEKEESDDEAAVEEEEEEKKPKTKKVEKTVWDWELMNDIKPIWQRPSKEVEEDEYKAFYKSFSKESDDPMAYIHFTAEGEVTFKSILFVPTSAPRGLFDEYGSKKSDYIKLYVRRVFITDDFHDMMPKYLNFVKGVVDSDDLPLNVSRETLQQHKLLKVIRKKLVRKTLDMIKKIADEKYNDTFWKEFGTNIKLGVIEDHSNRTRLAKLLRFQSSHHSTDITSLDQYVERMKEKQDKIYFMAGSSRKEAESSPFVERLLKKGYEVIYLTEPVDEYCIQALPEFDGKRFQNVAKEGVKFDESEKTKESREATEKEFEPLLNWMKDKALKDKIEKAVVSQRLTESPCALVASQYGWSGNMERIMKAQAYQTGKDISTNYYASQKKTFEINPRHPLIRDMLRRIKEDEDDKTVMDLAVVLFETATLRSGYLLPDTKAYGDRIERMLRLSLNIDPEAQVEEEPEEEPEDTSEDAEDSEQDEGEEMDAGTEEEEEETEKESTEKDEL
UniProt P14625, residues 592-803: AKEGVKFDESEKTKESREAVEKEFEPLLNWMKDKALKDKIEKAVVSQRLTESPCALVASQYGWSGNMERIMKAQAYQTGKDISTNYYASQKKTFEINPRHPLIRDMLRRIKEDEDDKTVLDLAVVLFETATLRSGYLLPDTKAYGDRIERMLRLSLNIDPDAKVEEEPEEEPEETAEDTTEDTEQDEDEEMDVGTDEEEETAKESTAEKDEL
UniProt O55143: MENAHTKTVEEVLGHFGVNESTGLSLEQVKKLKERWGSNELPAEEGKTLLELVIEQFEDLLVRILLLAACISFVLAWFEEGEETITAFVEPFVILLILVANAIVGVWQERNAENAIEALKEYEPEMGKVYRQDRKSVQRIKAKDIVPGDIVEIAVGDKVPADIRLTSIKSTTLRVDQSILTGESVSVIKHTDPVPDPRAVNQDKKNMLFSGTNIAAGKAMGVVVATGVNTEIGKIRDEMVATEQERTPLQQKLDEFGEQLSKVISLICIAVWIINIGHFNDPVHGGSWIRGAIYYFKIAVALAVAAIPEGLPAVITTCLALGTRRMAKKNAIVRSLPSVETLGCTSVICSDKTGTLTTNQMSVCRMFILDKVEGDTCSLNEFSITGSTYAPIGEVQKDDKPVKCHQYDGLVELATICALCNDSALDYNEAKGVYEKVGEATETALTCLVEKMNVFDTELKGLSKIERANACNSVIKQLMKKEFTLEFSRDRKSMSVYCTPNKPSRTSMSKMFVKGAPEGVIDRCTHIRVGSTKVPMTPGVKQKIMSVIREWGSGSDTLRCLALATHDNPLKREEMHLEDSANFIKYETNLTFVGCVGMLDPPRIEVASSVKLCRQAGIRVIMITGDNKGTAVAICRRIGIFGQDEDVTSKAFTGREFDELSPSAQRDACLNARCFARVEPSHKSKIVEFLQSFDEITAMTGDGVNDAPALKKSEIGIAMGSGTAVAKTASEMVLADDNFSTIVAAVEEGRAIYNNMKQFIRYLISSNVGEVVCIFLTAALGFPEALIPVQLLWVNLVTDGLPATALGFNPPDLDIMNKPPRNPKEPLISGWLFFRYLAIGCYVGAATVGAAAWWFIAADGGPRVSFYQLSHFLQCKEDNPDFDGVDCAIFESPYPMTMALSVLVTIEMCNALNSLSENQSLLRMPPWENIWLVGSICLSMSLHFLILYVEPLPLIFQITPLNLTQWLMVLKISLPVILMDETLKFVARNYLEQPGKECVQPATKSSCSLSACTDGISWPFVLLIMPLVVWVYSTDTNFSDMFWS
UniProt Q9Z0J4: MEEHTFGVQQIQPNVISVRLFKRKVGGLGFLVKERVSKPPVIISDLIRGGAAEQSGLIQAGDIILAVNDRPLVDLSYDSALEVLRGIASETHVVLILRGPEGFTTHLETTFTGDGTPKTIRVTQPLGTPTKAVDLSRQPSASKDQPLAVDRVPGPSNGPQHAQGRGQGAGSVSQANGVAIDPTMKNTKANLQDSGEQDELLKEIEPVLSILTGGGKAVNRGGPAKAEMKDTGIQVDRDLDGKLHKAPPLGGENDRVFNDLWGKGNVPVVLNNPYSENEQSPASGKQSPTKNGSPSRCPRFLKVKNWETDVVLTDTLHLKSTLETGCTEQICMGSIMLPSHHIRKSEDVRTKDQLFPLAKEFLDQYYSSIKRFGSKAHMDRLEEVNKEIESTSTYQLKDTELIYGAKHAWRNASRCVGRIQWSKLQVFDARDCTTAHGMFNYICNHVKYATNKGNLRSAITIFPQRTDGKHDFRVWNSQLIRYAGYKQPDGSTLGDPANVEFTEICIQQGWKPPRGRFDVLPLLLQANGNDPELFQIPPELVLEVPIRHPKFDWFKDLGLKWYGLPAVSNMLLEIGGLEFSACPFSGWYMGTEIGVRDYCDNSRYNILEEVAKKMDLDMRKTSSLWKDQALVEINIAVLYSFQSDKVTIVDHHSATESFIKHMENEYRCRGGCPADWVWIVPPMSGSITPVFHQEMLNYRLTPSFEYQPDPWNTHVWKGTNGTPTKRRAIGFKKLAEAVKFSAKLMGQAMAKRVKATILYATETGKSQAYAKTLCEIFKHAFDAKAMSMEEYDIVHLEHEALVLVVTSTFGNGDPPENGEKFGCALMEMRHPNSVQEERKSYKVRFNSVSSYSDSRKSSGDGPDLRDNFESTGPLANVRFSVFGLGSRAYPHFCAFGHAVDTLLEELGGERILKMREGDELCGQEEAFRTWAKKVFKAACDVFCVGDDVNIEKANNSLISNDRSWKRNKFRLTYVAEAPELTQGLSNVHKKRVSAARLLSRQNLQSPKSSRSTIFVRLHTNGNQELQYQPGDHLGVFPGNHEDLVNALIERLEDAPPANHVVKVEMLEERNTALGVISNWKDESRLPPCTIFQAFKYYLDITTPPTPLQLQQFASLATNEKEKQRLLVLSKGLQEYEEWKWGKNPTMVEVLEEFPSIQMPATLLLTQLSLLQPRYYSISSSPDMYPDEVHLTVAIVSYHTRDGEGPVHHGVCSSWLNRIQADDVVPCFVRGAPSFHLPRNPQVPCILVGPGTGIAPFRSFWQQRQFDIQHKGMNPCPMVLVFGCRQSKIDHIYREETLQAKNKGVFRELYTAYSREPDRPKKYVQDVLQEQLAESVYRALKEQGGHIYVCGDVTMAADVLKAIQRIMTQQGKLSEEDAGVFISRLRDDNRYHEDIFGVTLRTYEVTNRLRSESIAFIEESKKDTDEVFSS
UniProt P14211, residues 18-416: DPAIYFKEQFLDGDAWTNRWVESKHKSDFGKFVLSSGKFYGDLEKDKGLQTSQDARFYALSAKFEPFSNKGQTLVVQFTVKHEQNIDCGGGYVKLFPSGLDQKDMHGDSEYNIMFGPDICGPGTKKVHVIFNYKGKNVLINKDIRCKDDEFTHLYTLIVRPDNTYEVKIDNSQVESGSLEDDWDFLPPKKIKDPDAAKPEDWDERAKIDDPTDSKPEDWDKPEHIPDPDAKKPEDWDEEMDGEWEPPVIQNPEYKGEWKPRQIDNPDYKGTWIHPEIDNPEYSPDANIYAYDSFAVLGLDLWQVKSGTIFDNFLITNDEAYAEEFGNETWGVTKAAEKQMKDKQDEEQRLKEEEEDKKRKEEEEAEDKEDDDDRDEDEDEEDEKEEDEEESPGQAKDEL

These are yes or no findings as the source states them, for the method shown. In cells and extracts the contact can be indirect. Some results given as binding are weak or reduced against the parent protein; the word gives no strength.

The target of test [1] is Grp94/gp96 (endoplasmic reticulum chaperone), endogenous in C2C12 cells (mouse (endogenous in C2C12)) (UniProt P08113). Put plainly: co-IP; anti-Grp94 3c4 (2 ug) on about 100 ug C2C12 lysate in RIPA buffer, anti-mouse Ig agarose beads, Western blot; non-immune mouse IgG as control; untreated cells. Background: A western blot detects proteins with antibodies after separation by electrophoresis.

Test [2] concerns the target VSV-G tagged Δ1-570 Grp94 polypeptide (N-terminal deleted Grp94, AA 571–782) (UniProt P14625). The experiment in a line: co-IP; anti-VSV-G P5D4 on lysate of C2C12 cells transfected or not with plasmid pVSV-G6B (ΔGrp94); blots with anti-SERCA2, anti-Grp94 and anti-VSV-G.
Test [3] has as its target Grp94/gp96 (endoplasmic reticulum chaperone), endogenous in C2C12 cells (mouse (endogenous in C2C12)) (UniProt P08113). Put plainly: co-IP; anti-Grp94 3C4 on lysate of C2C12 cells exposed 16 h to 10 uM L-NNA and lysed in the presence of the inhibitor.
Test [4] shares this target. Put plainly: co-IP; anti-Grp94 3c4 on C2C12 lysate in RIPA buffer after cross-linking of the culture with DSP (200 ug/mL, 5 min, room temperature); linker cleaved before SDS-PAGE.

As for “SERCA2, endogenous in C2C12 cells (from UniProt O55143 1-1044)”, the binding result in test [1] was “binds”; in test [2], “binds”; in test [3], “no binding (condition: cells exposed 16 h to 10 uM L-NNA)”.
As to “nNOS, endogenous in C2C12 cells (from UniProt Q9Z0J4 1-1429) (enzyme)”, the binding result is “binds” in test [1] and “no binding (condition: cells exposed 16 h to 10 uM L-NNA)” in test [3].
Turning to “calreticulin, endogenous in C2C12 cells (from UniProt P14211 18-416)”, the binding entry in test [4] was “no binding”.
Turning to “Grp94/gp96 (endoplasmic reticulum chaperone), endogenous in C2C12 cells (from UniProt P08113 22-802)”, the binding entry in test [2] is “no binding”.
